{
  "source": "PubChem BioAssay AID2546",
  "about": "(National Center for Advancing Translational Sciences (NCATS), 2010)",
  "note": "The campaign covered roughly 310,000 compounds. About 11,000 (3.5%) were called active. This list was built around the results that the source calls inconclusive (neither active nor inactive); the mix of calls is not that of the screen. Calls follow the shape of the dose curve; as a rule, active = well fitted inhibition curve with a large enough effect; inconclusive = small, poorly fitted or top-dose-only effect, or effect the other way; inactive = flat fitted curve, though single readings scatter. Potencies of inconclusive entries are left out as doubtful fits. % is scaled to controls: 0 for no effect and ±100 for the full control effect; potency is read from the fitted curve at half-maximal effect; tags tell the direction and shape of the fitted curve.",
  "data": [
    {"test": "VP16 counterscreen qHTS for inhibitors of ROR gamma transcriptional activity;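 also: Gal4-VP16 expression switched on by copper sulfate through the metallothionein promoter; nearly all actives have a fitted effect of over 50% in size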", "conditions": "Drosophila S2 Gal4-VP16 UAS-luciferase, luminescence, 20 h; activity, negative = inhibition: at 53.6 µM (top of the series)", "values": [
      {"smiles": "Cc1ccnc(NC(=S)NC(=O)c2cncc(Br)c2)c1", "Potency": "inconclusive [inhibitor, full curve, poor fit]"},
      {"smiles": "COc1ccccc1-c1nnc(NC(=O)c2ccc(S(=O)(=O)N(C)C)cc2)o1", "Potency": "active: 0.631 µM"},
      {"smiles": "c1ccc2c(c1)NC1(CCCCC1)n1c-2nc2ccccc21", "activity, negative = inhibition": "inactive: 4.22%"},
      {"smiles": "CCN(CC)c1ccc(/C=N/NC(=O)c2cc(C)nc3ccccc23)cc1", "Potency": "inconclusive [inhibitor, single point]"},
      {"smiles": "Nc1c(C(=O)O)sc2nc(-c3ccc(F)cc3)cc(-c3ccccc3)c12", "activity, negative = inhibition": "inactive: 7.7%"},
      {"smiles": "Cc1ccc(C(=O)NC(=S)N2CCN(C(=O)OC(C)(C)C)CC2)cc1Br", "Potency": "active: 1.12 µM"},
      {"smiles": "COc1ccc(C(=O)O/N=C(\\N)c2ccccn2)c(OC)c1", "Potency": "inconclusive [inhibitor, partial curve, poor fit]"},
      {"smiles": "CSc1cccc(CN2CCC(CCC(=O)NC3CC3)CC2)c1", "activity, negative = inhibition": "inactive: -2.82%"},
      {"smiles": "COc1ccccc1Nc1nc(N)nc(CN2CCC(Cc3ccccc3)CC2)n1", "Potency": "inconclusive [inhibitor, single point]"},
      {"smiles": "O=C(NC1CCCCC1)c1ccc(S(=O)(=O)c2ccccc2Cl)c([N+](=O)[O-])c1", "Potency": "inconclusive [inhibitor, single point]"},
      {"smiles": "COc1ccc(C(=O)Nc2ccc(C(F)(F)F)n(C)c2=O)cc1", "activity, negative = inhibition": "inactive: -0.805%"},
      {"smiles": "Cc1nn(-c2nnc(C)c(=O)[nH]2)c(C)c1SCC(=O)Nc1ccc(C(C)C)cc1", "activity, negative = inhibition": "inactive: 19.3%"},
      {"smiles": "CCCCC#Cc1ccc(C(=O)NNC(=O)Nc2cc(Cl)cc(Cl)c2)o1", "activity, negative = inhibition": "inactive: 5.5%"},
      {"smiles": "CCC1CCCCN1S(=O)(=O)c1ccc(NC(=O)c2nc(S(C)(=O)=O)ncc2Cl)cc1", "note": "(stereo not given)", "Potency": "active: 3.98 µM"},
      {"smiles": "COc1cccc(NC(=S)N2CCN(S(=O)(=O)c3ccc(F)cc3)CC2)c1", "activity, negative = inhibition": "inactive: -6.92%"},
      {"smiles": "O=C(Nc1nc2ccccc2[nH]1)C12CC3CC(CC(C3)C1)C2", "Potency": "active: 10 µM"},
      {"smiles": "CCC(CC)C(=O)N(CCc1ccc(OC)cc1)Cc1nc2ccccc2c(=O)[nH]1", "Potency": "active: 10 µM"},
      {"smiles": "Cc1cc(Cl)cc2sc(NC(=O)c3ccco3)nc12", "Potency": "inconclusive [inhibitor, single point]"},
      {"smiles": "COc1ccc(C2CC(c3ccc(Cl)cc3Cl)Nc3nc(N)nn32)cc1", "note": "(stereo not given)", "Potency": "active: 4.47 µM"},
      {"smiles": "Cc1cc(NC(=O)c2ccccc2)n(-c2nc3ccccc3[nH]2)n1", "Potency": "active: 2.82 µM"},
      {"smiles": "N#Cc1ccc(-c2csc(NNC(=O)c3ccccc3)n2)cc1", "Potency": "inconclusive [inhibitor, partial curve]"},
      {"smiles": "CC(=O)Nc1cccc(NC(=O)COc2ccc3c(c2)OCO3)c1", "activity, negative = inhibition": "inactive: -18.7%"},
      {"smiles": "O=[N+]([O-])c1ccc2c(c1)S(=O)(=O)C=C2", "Potency": "inconclusive [inhibitor, single point]"},
      {"smiles": "O=C(O)CCC(=O)Nc1ccc(F)cc1", "activity, negative = inhibition": "inactive: 4.61%"},
      {"smiles": "CC1CCN(C(=O)c2cc(-c3ccco3)on2)CC1", "Potency": "inconclusive [inhibitor, partial curve]"},
      {"smiles": "COc1cc(CCC(=O)N2CCN(c3ccccc3)CC2)cc(OC)c1OC", "activity, negative = inhibition": "inactive: 0.708%"},
      {"smiles": "O=C1C=C(Nc2ccccc2)c2ccccc2C1=O", "Potency": "inconclusive [inhibitor, single point]"},
      {"smiles": "CCOc1cc(C=C(C(=O)OC)C(=O)OC)ccc1OCc1ccc([N+](=O)[O-])cc1", "Potency": "inconclusive [inhibitor, single point]"},
      {"smiles": "Cc1ccc2ccc3ccc(C)nc3c2n1", "Potency": "active: 0.562 µM"},
      {"smiles": "Cc1ccc(NC(=O)NCC2CCN(Cc3cc(C)ccc3Cl)CC2)c(C)c1", "activity, negative = inhibition": "inactive: -4.94%"},
      {"smiles": "Cc1cc(C)n2c(SCc3ccc(Cl)cc3Cl)nnc2n1", "Potency": "inconclusive [inhibitor, partial curve, poor fit]"},
      {"smiles": "O=C(NC(=S)Nc1ccc(F)cc1)c1ccc2c(c1)OCCO2", "Potency": "inconclusive [inhibitor, single point]"},
      {"smiles": "COc1ccc(N2CCN(C(=O)C3CCCN(S(=O)(=O)c4ccc(C)cc4)C3)CC2)cc1", "note": "(stereo not given)", "Potency": "inconclusive [inhibitor, single point]"},
      {"smiles": "Nc1nc(NCc2ccccc2)nc(Nc2cccc(F)c2)c1[N+](=O)[O-]", "Potency": "inconclusive [inhibitor, single point]"},
      {"smiles": "Cc1cc(-c2cn3ccccc3n2)c(C)n1-c1ccccc1", "activity, negative = inhibition": "inactive: -16%"},
      {"smiles": "CCOc1cccc(C(=O)NC(=S)Nc2cccc(C)c2)c1", "Potency": "active: 10 µM"},
      {"smiles": "O=C1OCCC1Sc1nnc(-c2cccc(Br)c2)o1", "note": "(stereo not given)", "activity, negative = inhibition": "inactive: 14.1%"},
      {"smiles": "O=[N+]([O-])c1cc(C(F)(F)F)ccc1NCCc1c[nH]c2ccccc12", "Potency": "inconclusive [inhibitor, single point]"},
      {"smiles": "O=C(Nc1ccc(Cl)cc1)NC1CCCc2ccccc21", "note": "(stereo not given)", "activity, negative = inhibition": "inactive: 3.35%"},
      {"smiles": "COCCn1c(-c2ccc(OC)cc2)cnc1SCC(=O)Nc1ccc(OC)cc1OC", "Potency": "inconclusive [activator, single point]"}
    ]}
  ]
}
